# Read counts are not given, so values of variants with three or more changes are uncertain.
# B1: OR4K15 (parent)
# chain: GUUAACGGUCAUAGGCCAUGGAAACUAGGAGCACCAUUUCGCUGCCAGUGAAGAAAUGAACAAAGAAAAUCUGGGCCAGGCAGGCAUCAAAAGAAAUAGUCUUGCGCUCAACCAGAAAGUCUGUAAUCAUUUUAAGGGUA
# Variants of: B1
# Assay: self-cleavage, relative activity (ratio to wild type); higher = more cleavage; in vitro, sequencing; the parent is a self-cleaving ribozyme
row,Variant,self-cleavage
1,U49A A62U A126G,0.84
2,U49C A67U A125G,0.74
3,U43C G104A U122C A129G,0.02
4,U43C U87C A126G,0.8
5,U49C A60G C88U A111G U122A,0
6,A47U A56G A67G A78G A98G U108C U127C,0
7,U49C A110G A111U A116G G137U,0.01
8,U49C A111G A114U,0.02
9,A47U A52G A67G A94G,0.65
10,G48U A56G A78G,0.04
11,U49A U57C U108C U131C,0.01
12,U49A U57C U70C,0.52
13,C46U A86G A95G A135U,1.79
14,A47G U130G U131C,0.26
15,U43C C46U U70C A95G,1.53
16,U43C A68G A111G A126U U127C U130C,0.01
17,C46U A89G A91G U130C,1.55
18,A47G A52G A62U U87C U122G,1.98
19,A47U U87C A118G,0.68
20,U49C A86U A110G A135G,0.08
21,U43C A82U A94G A118G,0.13
22,U49C A68G U70C A92G A94G U124G,0.12
23,A47G A63G G74U A86G U100C,0.17
24,U49C A55G U103C,0.24

row,Variant,self-cleavage
1,A47C U72C A94G A96G,0.11
2,A47U A89G U127C,0.28
3,C46U U87C A92G U130C,0.57
4,A47G A56G A59G A63G,0.76
5,U49A A55G A66G U72C A96G A116U,0.01
6,G48A A59G A110G U127A,0.21
7,U43C U70C A96G,0.39
8,U43C A68G U108C,0.01
9,U49A A69G A92G,0.29
10,U43C U100C A140G,2.39
11,A47G A69G U130G U131C,0.39
12,U43C U108C U122C G137C,0.01
13,G44U A55U A67G,1.73
14,A47G A82G A118G U132C,0.09
15,U49C A54G A89G U103C,0.57
16,U49C G73U U108A A110G C113U,0.02
17,U43C A66G A110G,0.23
18,U49C A55G A59G A118G,1.1
19,A47C U49C A60G G83A A90U,1.51
20,U43C A95G A118G U131C,2.5
21,G44C A56G U100A A117G,1.16
22,U43C U49G A98G A111U U122A,0.01
23,C45U A54U A59G A62G A98G U120A,0.73
24,U49C A78U U122C,0.13

row,Variant,self-cleavage
1,A47G A51G A94G A95G,0.53
2,A47G A125G U127C,0.06
3,A47G A60G U120C,0.68
4,C45U A69G A92G,1.15
5,U43C A67G A91G A92G,0.08
6,A47U A54G A67G,0.17
7,G48U A51G A69G A116G U127C,0.18
8,U43C A91G A140G,1.55
9,A47U U57A A116U,0.02
10,A47G U122C U132C,1.04
11,U49C A67G A68G U70C U103A A135G,0.09
12,U49C A64G U72A,0.38
13,U43C U70C A125G,0.14
14,U43C U108C A117G,0
15,G44A A68G A126G,0.73
16,A47G A117G U132C,0.83
17,U49C A59G A92G,0.52
18,U49A A111G U130C,0
19,U43C U100C G115U,0.13
20,U43C A78G A134C,0.42
21,A47G A51G U131C,1.6
22,U49C A78U A117G,0.24
23,U43C A95G U131G,2.13
24,A47G G74A U87A,0.14

row,Variant,self-cleavage
1,G48U A54U U70G A92G,0.07
2,C45U A82G A91G A96G,0.26
3,G44A A51G A95G,1.27
4,A47U A90G A117G U131C,0.38
5,U43C A64U C109U,0.5
6,U43C U57C A67G G106U A110G,0.04
7,U49C A60G U103C,0.16
8,G44A A62G U102C U131C,2.05
9,A47U A59G U122C,0.65
10,U49C U57C A62G U133C,1.1
11,A47G A60G U100A,0.29
12,A47G A54G A94G A114G U124A,0.01
13,U43C G75U A86U U132G,0.11
14,A47U A60U A68G,0.96
15,A47U A110G U122C,0.1
16,U49A U72A A86C,0.28
17,U43C C105U A114U,0.01
18,G48A A60G U102C A118G,1.7
19,U49C A64G U87C A118G,1.03
20,C46U A60C A64G,1.08
21,U49A G50A A59G A82G A86G A95G,0.3
22,U49C A66G A117G U131C,0.93
23,A47G U49C A55G,1.49
24,U43C U108C A117G A129G,0

row,Variant,self-cleavage
1,A47U A82G A92G U108C,0.01
2,U49A A66G A111G A118U,0
3,U43C A68G A91G,1.49
4,A47G A78G A94G,0.16
5,U49A U70G A110U A126U,0.4
6,A47G A78U A111G,0.01
7,U43C A94G A118G,1.37
8,U43C A67G A89G A114U U131C,0.02
9,U49C G104A A117G U124G,0.02
10,A47U A52G A54G A56G U108A,0.1
11,C45U A68G U131C,1.08
12,U49C A62G A92C,1.48
13,A47G A67G A89G A116G,0.17
14,A47G A54G U132C,1.42
15,U49A A67G G73U U122C,0.11
16,C46U A52G A89G,0.62
17,U43C U57C A110C A135C,0.12
18,A47G A56G A63G,1.02
19,A47U U57C A69G A94G A110C,0.04
20,A47U A51G A111G,0.01
21,A47U U57C A91G A126U,0.1
22,A47G A89G A98G,0.31
23,A47G A54G A59U A82G A116U,0.04
24,U43C A90G A92C,0.6

row,Variant,self-cleavage
1,A47G U49A A51G A67U A117G,1.78
2,U49A U72G A86G A95G A118U,0.02
3,U49C A54U U133G,1.57
4,A47G A68G A96U,0.92
5,U49A G73A C109U U122C U132C,0.03
6,G44U A54U A86G A89G,2.16
7,U49C U72C A78U A96U A117G,0
8,C45G A118G A140G,1.28
9,U49C A55G A56G,1.37
10,A47U A52G A67G U130C,0
11,U49C A69G U108C,0.01
12,U49C A96G U97C,0.41
13,A47G A51G A110U,0.76
14,A47G U49C A66G,1.32
15,A47G A52G A60G,1.04
16,U49C A90G U108C U139C,0.01
17,A47C A90U A98G U100C,0.87
18,U49C A60G A114C,0.01
19,U43C A86G U127C,0.43
20,U49C A67G A68G,0.57
21,A47G A86U A114U,0.01
22,U43G A56G A117G U122C,0.4
23,A47G A82U U102C,0.3
24,A47G A51G A69G,0.84

row,Variant,self-cleavage
1,U43C U130C A134U,0.49
2,U49C A66G U120A U139A,2.29
3,U49C A62G C85G A92G,0.46
4,A47G A98U A134G,1.98
5,A47G U49C A60G A63G C85U A98G,0.15
6,A47G A92G U120C,0.19
7,A47G A63G A82G A140G,0.43
8,U49C A78G A111U U130G,0.02
9,A47U A68G U108C A134G,0.02
10,A47U A116G U120C,0.14
11,U49C A52U A60U A89G A91G A95U,1.15
12,U49C U87A A111G A114G,0.02
13,A47C U122A U132C,1.31
14,A47U A55G A95G A116G U124G U132C,0.19
15,U49C A69U A135G,1.51
16,U49A U102C A118G A129U,0.84
17,A47U A86G A117G,1.05
18,A47G A78U A125G,0.09
19,U43C A62G U139C,1.6
20,U43C A110C A118G,0.32
21,A47G U49C A86G A140G,0.45
22,U49C A60G U72A A98G,0.04
23,A47G A52G A67U,1.24

# Reference: the RNAGym collection of RNA variant scans (doi:10.7554/elife.90254)
